Experimental findings from the supplement of paper PMC7826260 are described below.

This is one part of the list. The data describe in vitro nicking of single-stranded DNA by Rep domains at 3 µM enzyme and 37 °C for 1 h; the strands have 90 letters, of which the middle is given. Uncut reads are compared with the no-enzyme pool on a log2 scale; uncut sequences lie near 0, cut ones below; no hit call is given. Counts are relative to all reads; uncut strands gain when others are lost, and binding without cutting may add a little.

The subject of the first assay is T1, Rep nickase domain of cabbage leaf curl virus.
T1 sequence (residues 1-116, tag not shown): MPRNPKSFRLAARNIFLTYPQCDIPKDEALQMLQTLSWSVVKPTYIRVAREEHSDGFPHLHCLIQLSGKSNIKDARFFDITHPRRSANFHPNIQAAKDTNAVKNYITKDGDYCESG
Description: uncleaved DNA left, log2 of reads against the no-enzyme library (log2 ratio); higher = less cleavage (more negative = more Rep cleavage of the k-mer); sequences stand for … in CTCGTCCG…ACCGGAGA
As to the method: (§1)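 A pool of 90-nt single-stranded DNAs with seven random bases just before the constant AC of the nick site (name = the seven bases) was cut by 3 µM recombinant His6-SUMO-tagged Rep nickase domain (300 nM DNA, 50 mM HEPES pH 8.0, 50 mM NaCl, 1 mM MnCl2, 1 h, 37 °C, three replicates). Uncut DNA was amplified and sequenced.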
As to ACACAGC, the “uncleaved DNA left (log2)” value was -0.438.

TCTGACA: the “uncleaved DNA left (log2)” value stood at 0.0329.

As for TCTGGGA, the “uncleaved DNA left (log2)” value amounted to 0.16.

For AAATTTC, the “uncleaved DNA left (log2)” value was -3.21.

As for AACTGGA, the “uncleaved DNA left (log2)” value stood at 0.0326.

As for CTACTAA, the “uncleaved DNA left (log2)” value was -0.321.

With GCATGTC, the “uncleaved DNA left (log2)” value was 0.101.

As for CTGGCTT, the “uncleaved DNA left (log2)” value is -0.239.

Consider ACGAGGG, for which the “uncleaved DNA left (log2)” value was -0.516.

Turning to TTACAGG, the “uncleaved DNA left (log2)” value was found to be 0.344.

As to CTCGTAT, the “uncleaved DNA left (log2)” value stood at 0.203.

Turning to TAATCGT, the “uncleaved DNA left (log2)” value was -4.12.

As for GGTTTCT, the “uncleaved DNA left (log2)” value was determined as 0.318.

In the case of CCACGAC, the “uncleaved DNA left (log2)” value was -0.0692.

On to ATTTCAC, for which the “uncleaved DNA left (log2)” value was -0.175.

CAAGTCC: the “uncleaved DNA left (log2)” value was -0.119.

With TAACAGT, the “uncleaved DNA left (log2)” value was -2.47.

For GCCTGAT, the “uncleaved DNA left (log2)” value is 0.0978.

For CTTGCCC, the “uncleaved DNA left (log2)” value was -0.47.

Take CTACATA: the “uncleaved DNA left (log2)” value is -0.238.

For a further assay, the system named is T2, Rep nickase domain of chickpea chlorotic dwarf virus.
T2 sequence (residues 1-124, tag not shown): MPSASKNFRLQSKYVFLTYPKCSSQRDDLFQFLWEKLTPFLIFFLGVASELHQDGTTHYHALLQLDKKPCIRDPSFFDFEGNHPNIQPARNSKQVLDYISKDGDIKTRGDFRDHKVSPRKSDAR
The description is as above. The procedure:
as §1
As to GAAGGGA, the “uncleaved DNA left (log2)” value came out at 0.915.

Consider TTAGGTT, for which the “uncleaved DNA left (log2)” value was 0.501.

As to ATGTATG, the “uncleaved DNA left (log2)” value was -0.499.

Take GTAGTCA: the “uncleaved DNA left (log2)” value turned out to be 0.713.

As for ACCTTAG, the “uncleaved DNA left (log2)” value stood at 0.116.

As for GACTTCG, the “uncleaved DNA left (log2)” value was -0.64.

For the sequence ACACATG, the “uncleaved DNA left (log2)” value was -0.229.

In the case of GAAATGT, the “uncleaved DNA left (log2)” value is -0.826.

As to TAAGAAG, the “uncleaved DNA left (log2)” value was -0.678.

With TGTAATC, the “uncleaved DNA left (log2)” value is 0.648.

Consider CCTCACA, for which the “uncleaved DNA left (log2)” value was -1.61.

Turning to TATATAA, the “uncleaved DNA left (log2)” value is -0.333.

Consider TCTATTG, for which the “uncleaved DNA left (log2)” value was -0.608.

In the case of ATATGAC, the “uncleaved DNA left (log2)” value was 0.247.

Take CAAGAGA: the “uncleaved DNA left (log2)” value amounted to 0.461.

For the sequence AGTCGTT, the “uncleaved DNA left (log2)” value was -1.12.

For TTCTTAG, the “uncleaved DNA left (log2)” value is -0.827.

Turning to AAAAAGC, the “uncleaved DNA left (log2)” value was -0.267.

On to AGCGGTC, for which the “uncleaved DNA left (log2)” value came out at 0.494.

CAACTTC: the “uncleaved DNA left (log2)” value is -1.83.

ACACAGC: the “uncleaved DNA left (log2)” value was -0.454.

In the case of TCTGACA, the “uncleaved DNA left (log2)” value was determined as 0.0523.

As for TCTGGGA, the “uncleaved DNA left (log2)” value worked out at 0.232.

As to AAATTTC, the “uncleaved DNA left (log2)” value was -2.98.

As to AACTGGA, the “uncleaved DNA left (log2)” value worked out at 0.27.

Take CTACTAA: the “uncleaved DNA left (log2)” value is -1.69.

On to GCATGTC, for which the “uncleaved DNA left (log2)” value was determined as 0.296.

Consider CTGGCTT, for which the “uncleaved DNA left (log2)” value is -1.3.

Regarding ACGAGGG, the “uncleaved DNA left (log2)” value is -0.198.

As for TTACAGG, the “uncleaved DNA left (log2)” value came to 0.979.

Regarding CTCGTAT, the “uncleaved DNA left (log2)” value is -0.512.

For TAATCGT, the “uncleaved DNA left (log2)” value was -3.13.

Turning to GGTTTCT, the “uncleaved DNA left (log2)” value is 0.622.

Regarding CCACGAC, the “uncleaved DNA left (log2)” value was -0.243.

On to ATTTCAC, for which the “uncleaved DNA left (log2)” value was -0.709.

For the sequence CAAGTCC, the “uncleaved DNA left (log2)” value was -0.55.

As to TAACAGT, the “uncleaved DNA left (log2)” value is -2.98.

In the case of GCCTGAT, the “uncleaved DNA left (log2)” value stood at 0.47.

With CTTGCCC, the “uncleaved DNA left (log2)” value was -0.683.

Consider CTACATA, for which the “uncleaved DNA left (log2)” value was -1.94.

The next assay has as its system T3, Rep nickase domain of faba bean necrotic yellows virus.
T3 sequence (residues 1-98, tag not shown): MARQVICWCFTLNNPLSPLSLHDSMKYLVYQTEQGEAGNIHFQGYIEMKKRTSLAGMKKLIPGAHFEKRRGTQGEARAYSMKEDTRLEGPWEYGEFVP
Described as above. As to the method:
as §1
Regarding GAAGGGA, the “uncleaved DNA left (log2)” value is 0.0881.

Regarding TTAGGTT, the “uncleaved DNA left (log2)” value was -0.0092.

In the case of ATGTATG, the “uncleaved DNA left (log2)” value is -0.0411.

As for GTAGTCA, the “uncleaved DNA left (log2)” value is -0.0715.

Take ACCTTAG: the “uncleaved DNA left (log2)” value came out at 0.056.

Regarding GACTTCG, the “uncleaved DNA left (log2)” value is -0.1.

Turning to ACACATG, the “uncleaved DNA left (log2)” value worked out at 0.0107.

For GAAATGT, the “uncleaved DNA left (log2)” value is 0.0535.

Consider TAAGAAG, for which the “uncleaved DNA left (log2)” value worked out at 0.155.

Turning to TGTAATC, the “uncleaved DNA left (log2)” value stood at 0.003.

In the case of CCTCACA, the “uncleaved DNA left (log2)” value is -0.0743.

Turning to TATATAA, the “uncleaved DNA left (log2)” value was found to be 0.0519.

Consider TCTATTG, for which the “uncleaved DNA left (log2)” value amounted to 0.0561.

With ATATGAC, the “uncleaved DNA left (log2)” value stood at 0.107.

Consider CAAGAGA, for which the “uncleaved DNA left (log2)” value was 0.145.

For AGTCGTT, the “uncleaved DNA left (log2)” value is -0.564.

For the sequence TTCTTAG, the “uncleaved DNA left (log2)” value was -0.0407.

Consider AAAAAGC, for which the “uncleaved DNA left (log2)” value was determined as 0.0712.

Regarding AGCGGTC, the “uncleaved DNA left (log2)” value was -0.0467.

With CAACTTC, the “uncleaved DNA left (log2)” value worked out at 0.123.

On to ACACAGC, for which the “uncleaved DNA left (log2)” value was -0.0549.

Turning to TCTGACA, the “uncleaved DNA left (log2)” value was 0.0181.

TCTGGGA: the “uncleaved DNA left (log2)” value is -0.0583.

In the case of AAATTTC, the “uncleaved DNA left (log2)” value worked out at 0.0588.

With AACTGGA, the “uncleaved DNA left (log2)” value is -0.0568.

Consider CTACTAA, for which the “uncleaved DNA left (log2)” value is -0.0142.

In the case of GCATGTC, the “uncleaved DNA left (log2)” value was 0.142.

In the case of CTGGCTT, the “uncleaved DNA left (log2)” value was -0.0336.

Regarding ACGAGGG, the “uncleaved DNA left (log2)” value came out at 0.156.

For TTACAGG, the “uncleaved DNA left (log2)” value is -0.119.

CTCGTAT: the “uncleaved DNA left (log2)” value was 0.159.

TAATCGT: the “uncleaved DNA left (log2)” value amounted to 0.0368.

For GGTTTCT, the “uncleaved DNA left (log2)” value was -0.105.

With CCACGAC, the “uncleaved DNA left (log2)” value is -0.167.

For ATTTCAC, the “uncleaved DNA left (log2)” value is -0.0937.

As to CAAGTCC, the “uncleaved DNA left (log2)” value was -0.105.

TAACAGT: the “uncleaved DNA left (log2)” value is -0.0948.

As for GCCTGAT, the “uncleaved DNA left (log2)” value was -0.123.

Turning to CTTGCCC, the “uncleaved DNA left (log2)” value came out at 0.0815.

In the case of CTACATA, the “uncleaved DNA left (log2)” value came to 0.00514.
